In all, about 310,000 compounds went through this assay and about 14,000 (4.5%) showed an effect of 50% or more. Effects have a minus sign here. The list shows a part of the results.
target: human ether-à-go-go-related gene (hERG) potassium channel (human, UniProt Q12809); experiment: primary screen, population patch clamp on CHO cells stably expressing hERG
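Note: peak tail current of the secondary pulse compared with the same well before compound.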

Chain of human ether-à-go-go-related gene (hERG) potassium channel (Q12809 whole entry, looked up): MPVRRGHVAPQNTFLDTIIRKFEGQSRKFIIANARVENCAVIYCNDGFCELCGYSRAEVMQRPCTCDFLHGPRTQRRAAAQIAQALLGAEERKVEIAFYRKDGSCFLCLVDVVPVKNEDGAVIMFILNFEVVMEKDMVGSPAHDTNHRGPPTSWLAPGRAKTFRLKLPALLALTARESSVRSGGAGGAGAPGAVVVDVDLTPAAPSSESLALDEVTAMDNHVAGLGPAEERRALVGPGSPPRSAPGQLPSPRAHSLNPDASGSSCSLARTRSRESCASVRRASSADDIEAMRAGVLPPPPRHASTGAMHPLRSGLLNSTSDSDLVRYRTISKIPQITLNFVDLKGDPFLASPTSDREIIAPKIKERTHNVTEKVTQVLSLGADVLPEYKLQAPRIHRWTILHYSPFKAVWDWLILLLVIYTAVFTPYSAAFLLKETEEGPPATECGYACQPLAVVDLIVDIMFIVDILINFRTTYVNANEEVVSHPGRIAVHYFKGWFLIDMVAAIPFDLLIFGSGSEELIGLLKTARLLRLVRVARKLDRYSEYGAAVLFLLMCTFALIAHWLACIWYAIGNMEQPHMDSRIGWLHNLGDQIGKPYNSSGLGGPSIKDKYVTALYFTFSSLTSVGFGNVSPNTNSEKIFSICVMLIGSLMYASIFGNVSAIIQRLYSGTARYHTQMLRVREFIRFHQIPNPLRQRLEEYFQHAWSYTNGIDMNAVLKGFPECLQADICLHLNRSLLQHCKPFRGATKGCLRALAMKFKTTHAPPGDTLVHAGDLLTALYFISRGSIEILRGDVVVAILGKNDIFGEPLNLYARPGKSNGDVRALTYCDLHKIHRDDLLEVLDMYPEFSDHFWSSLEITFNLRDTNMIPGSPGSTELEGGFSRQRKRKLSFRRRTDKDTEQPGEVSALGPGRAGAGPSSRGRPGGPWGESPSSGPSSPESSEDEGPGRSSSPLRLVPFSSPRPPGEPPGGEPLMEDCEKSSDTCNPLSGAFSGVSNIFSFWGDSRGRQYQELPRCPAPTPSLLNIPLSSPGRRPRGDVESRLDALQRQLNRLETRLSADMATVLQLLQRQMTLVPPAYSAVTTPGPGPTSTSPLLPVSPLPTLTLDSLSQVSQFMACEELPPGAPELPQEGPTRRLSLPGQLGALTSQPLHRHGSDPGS

Structure (SMILES) | hERG current change (%, negative = inhibition) at 10uM [%]
C=CCc1c(C)nc(SC)nc1Nc1ccc(C(C)=O)cc1 | -27.9
CCN1CCN(C(=O)CN(CC)S(=O)(=O)c2ccc(F)cc2)CC1 | 8.19
CC1CCN(c2ccc([N+](=O)[O-])cc2C(N)=O)CC1 | -19.4
Cc1ccc(Oc2nc(-c3ccccc3)ncc2S(C)(=O)=O)cc1 | 11.3
Cc1ccc2nc(-c3ccccc3)cc(C(=O)NCCCn3ccnc3)c2c1 | -40.7
COc1ccccc1-n1c(SCC(=O)O)nc2sc3c(c2c1=O)CCC3 | 14.9
COc1cc(/C=N/OCC(=O)Nc2cc(C)on2)ccc1OCc1ccccc1 | 26
O=C(CNC(=O)c1ccncc1)N/N=C/c1cc(Br)ccc1OCc1ccccc1 | 3.49
CCOc1cc(C(=O)Nc2ccc([N+](=O)[O-])cn2)cc(OCC)c1OCC | -29
O=S(=O)(CCN1CCSCC1)c1ccc(Cl)cc1 | 10.1
CCn1nnnc1SCC(=O)N1c2ccccc2CCc2ccccc21 | 2.92
CC(=O)N(Cc1cc(=O)[nH]c2ccccc12)c1ccc(C)cc1 | -14
COc1ccc(C=Nc2cccc3ncccc23)cc1 | 4.44
O=C(COC(=O)c1ccccc1Nc1cccc(C(F)(F)F)c1)NCc1ccco1 | -1.48
COc1cccc(C(=O)NC(=S)N2c3ccccc3CC2C)c1OC (centres unmarked) | 8.64
CCS(=O)(=O)c1ccc2c(c1)N(S(C)(=O)=O)CC(C(=O)NN)O2 (centres unmarked) | 27.5
CC1(C)Cc2ccccc2-c2nnc(-c3ccccn3)n21 | 1.13
COc1ccc(C(=O)N2CCCC(CCC(=O)NCc3ccc(F)c(F)c3)C2)o1 (centres unmarked) | -25
O=C1/C(=C\c2cccc(O)c2)SC(=S)N1Cc1ccccc1 | 6.61
CCOC(=O)c1c(N)sc2c1C1CCN2CC1.Cl | -2.25
O=C(CN(C1CCCCC1)S(=O)(=O)c1ccccc1)NCc1ccco1 | -22
N#CC1(c2ccccc2)CCCN1C(=O)c1ccc(Br)o1 (centres unmarked) | -8.37

Structure (SMILES) | hERG current change (%, negative = inhibition) at 10uM [%]
Clc1ccc(N2CCN(Cc3ccc(Br)o3)CC2)cc1 | 7.93
COc1ccc(-c2ccc(SCC(=O)Nc3cccc(C(C)=O)c3)nn2)cc1OC | 0.703
CCOc1ccc2nc(/N=C/c3nc(-c4ccccc4)oc3O)sc2c1 | 4.73
O=C(O)CCC(=O)NNc1nc(-c2ccccc2)c2cc(Cl)ccc2n1 | 14.4
CC(NC(=O)Cn1nc(-c2ccccc2)c2ccccc2c1=O)c1ccccc1 (centres unmarked) | -14.3
c1ccc(CSc2nnc3c(n2)OC(c2ccco2)Nc2ccccc2-3)cc1 (centres unmarked) | 10
Cc1ccc(NC(=O)CSc2nc(C)c(Cc3ccccc3)c(=O)[nH]2)cc1 | 13.4
CCOc1ccc(-c2c(=O)n(O)c3ccccc3[n+]2[O-])cc1 | 20.8
O=C1CCc2cc(S(=O)(=O)Nc3ccccc3)ccc2N1 | -3.42
COc1ccc(-c2noc(CCCC(=O)N3CCOCC3)n2)cc1 | 30.7
C=CCNC(=S)Nc1sc2c(c1C(=O)OCC)CC(C(C)C)OC2 (centres unmarked) | 12.3
CCc1ccccc1NC(=O)NNS(=O)(=O)c1cc(C)ccc1C | -0.925
COc1ccc(N2CCN(c3ncnc4scc(-c5ccc(C)cc5)c34)CC2)cc1 | 13
CC(C)C(=O)NNc1ccccc1 | 1.77
Cc1ccccc1C(=O)Nc1sc2c(c1C(=O)O)CCC2 | 19
O=C1[C@@H]2Cc3c([nH]c4ccccc34)C(c3cccc([N+](=O)[O-])c3)N2C(=O)CN1C1CCN(Cc2ccccc2)CC1 (some centres unmarked) | 2.2
O=S(=O)(Nc1ccc2c(c1)oc1ccccc12)N1CCCC1 | 13.9
N#Cc1cccc(NC(=O)Cc2ccsc2)c1 | 17.5
CN(C)c1cccc2c(C=C(C#N)C#N)ccc(N(C)C)c12 | -45.1
CC(OC(=O)c1ccco1)C(=O)Nc1ccc(C(F)(F)F)cc1 (centres unmarked) | -16
CC1CCN(Cc2c(C(=O)N/N=C/c3cc(Br)ccc3O)nnn2-c2nonc2N)CC1 | 19.9
Oc1ccc(N2CCN(C(c3ccncc3)c3nnnn3C3CCCC3)CC2)cc1 (centres unmarked) | -17

Structure (SMILES) | hERG current change (%, negative = inhibition) at 10uM [%]
Nc1ccc(C#Cc2ccccc2)cc1 | -3.64
Cc1ccc2sc(NC(=O)CN3C(=O)c4ccccc4C3=O)nc2c1C | 4.09
O=C(Cn1nc(Cc2cccnc2)c2ccccc2c1=O)NCc1ccc(F)cc1 | -46.4
COc1ccc(NC(=O)Cn2c(=O)n(CC3CCCO3)c(=O)c3ccccc32)c(OC)c1 (centres unmarked) | 5.85
CSc1cccc(NC(=O)CSc2ncccc2C(=O)Oc2cccc([N+](=O)[O-])c2)c1 | -1.61
CC(C)(C)C(=O)NC1CC2CCCC(C1)N2C(=O)Nc1ccc(Cl)cc1 (centres unmarked) | 5.25
C(=N\Nc1nncc2ccccc12)/c1ccccn1 | -24.7
O=[N+]([O-])c1cc(Oc2cccnc2)cc([N+](=O)[O-])c1 | -25.2
CN(C)CCCN(C(=O)c1cc(-c2cccs2)nc2ccccc12)c1nc2c(F)cccc2s1.Cl | -48.8
COC(=O)C1=CN(c2ccc(OC)cc2)C=C(C(=O)OC)C1c1ccc(C)c([N+](=O)[O-])c1 | 2.74
CC(=O)[C@H]1[C@H]([C@H](O)[C@H](O)CO)O[C@](O)(C(=O)O)C[C@@H]1O | 18.3
COc1cc(CCC(=O)OCC(=O)Nc2ccc(F)c(F)c2F)cc(OC)c1OC | -2.69
CCN(Cc1ccccc1)C(=O)C1CCC(CNc2c(N3CCOCC3)c(=O)c2=O)CC1 (centres unmarked) | 11.5
COC(=O)c1ccc(C)c(NS(=O)(=O)c2ccc(OC)cc2)c1 | -40.9
CCCCN(CCCC)CCCNC(=O)Cn1cc2c(n1)-c1c(oc(C(=O)N3CCCC3)c1C)CC2 | -42.5
Cc1ccc(CN2[C@@H](c3ccccc3)COCCS2(=O)=O)cc1 | -4.74
C=CCN(CC=C)C(=S)NC(=O)/C=C/c1ccccc1 | -13.8
CCOc1ccc(N(CC(=O)NCCc2ccc(OC)cc2)S(C)(=O)=O)cc1 | -0.0301
C/C(=N\NC(=O)CN1CCCCC1)c1cccc([N+](=O)[O-])c1 | -25.9
Cc1ccc(CN2CCN(CC(=O)N3CCc4ccccc4C3)C2=O)cc1 | -50.8
CN(C(=O)CS(=O)(=O)c1cccc(Cl)c1)c1ccccc1 | -2.67
COc1ccc(N2CCN(C(CNC(=O)C(=O)NCCCn3ccnc3)c3ccco3)CC2)cc1 (centres unmarked) | 10

Structure (SMILES) | hERG current change (%, negative = inhibition) at 10uM [%]
O=C(N/N=C/C(Cl)=C\c1ccccc1)c1cnccn1 | -15.9
O=C(CN(Cc1ccc2c(c1)OCO2)C(=O)CSc1nc2ccccc2o1)NC1CCCCC1 | -16.4
COc1ccc(-c2cccc(C(=O)Nc3cccc(C(=O)O)c3)c2)cc1 | 13.9
O=C(NCc1ccco1)c1ccccc1-c1nc(-c2ccc(F)cc2)no1 | -20.4
O=C(CN(Cc1cccs1)C(=O)CSc1nnc(COc2ccccc2)o1)NC1CCCCC1 | -5.41
Cc1cc(S(=O)(=O)NCCCN2CCOCC2)ccc1Br.Cl | -18.2
O=C(COc1ccc(Cl)cc1Cl)N1CCN(c2ccccn2)CC1 | -33.3
O=C(Nc1ccc(S(=O)(=O)N2CCCC2)cc1)c1ccccc1 | -7.24
CC(C)CCNC(=O)C(c1ccco1)N(CC1CCCO1)C(=O)Cn1nnc2ccccc21 (centres unmarked) | 11.4
CN1C(=O)[C@H]2[C@@H](/C=C/c3ccccc3)N3C(=O)CN(Cc4ccccc4)C(=O)[C@@]3(C)[C@H]2C1=O | -10.7
O=C(N/N=C/c1cccc(C(F)(F)F)c1)c1cc2c(s1)-c1ccccc1CC2 | 1.25
Cc1ccc(Cl)cc1N1CCN(C(=O)c2ccccc2SCC(=O)N2CCCC2)CC1 | -47.5
CCOC(=O)c1oc2ccc(CNC3CCCCC3)c(Cl)c2c1C.O=C(O)C(=O)O | -38.8
Cc1nc(-c2ccc(Cl)cc2)sc1C1(C)CC(c2c(Cl)cccc2Cl)=NO1 (centres unmarked) | 18.3
Clc1ncc(CN2CCN(Cc3ccccc3)CC2)s1 | -4.52
COc1ccc(CNC(=O)C(=O)NC2CC(C)(C)NC(C)(C)C2)cc1 | 5.29
COc1ccccc1NC(=O)CSc1ccc2nnc(-c3cccnc3)n2n1 | -57
CN(C)CCCN1C(=O)c2cccc3c([N+](=O)[O-])ccc(c23)C1=O | -27.7
O=C(Cc1cn2ccsc2n1)OCc1ccccc1 | -6.37
COc1ccccc1CNC(=S)NCc1ccc(Cl)cc1 | 6.84
